Data reported in PubChem BioAssay AID1768 (National Center for Advancing Translational Sciences (NCATS), 2009).
In all, about 270,000 compounds went through this assay and about 620 (0.23%) were called active. The inconclusive results got no clear call from the source; some entries with a clear call stand among them for comparison. The call rests on the fitted dose curve; in most records, active means well fitted inhibition curve with a large enough effect in the polarisation, with a control signal flat (not every such curve was filed as active); inconclusive means small, poorly fitted or top-dose-only effect, or effect the other way, or a change in a side signal; inactive means no such curve, though single readings can be large or run the other way; the % refers to the polarisation. Potencies of inconclusive entries are doubtful fits and often do not repeat. A note “side channel” means that the fit belongs to a control or component signal, not to the main read-out.

molecular target: Menin (Homo sapiens) (UniProt O00255); test: qHTS Assay for Inhibitors Targeting the Menin-MLL Interaction in MLL Related Leukemias: Competition With Texas Red Labeled MLL-derived Mutant Peptide; settings: fluorescence polarization; series mostly up to 61.6 µM
Potency means the concentration at half of the fitted maximal effect; tags describe the fitted curve by direction and shape or compound fluorescence and quenching.

Chain of UniProt O00255 (O00255 whole entry, looked up): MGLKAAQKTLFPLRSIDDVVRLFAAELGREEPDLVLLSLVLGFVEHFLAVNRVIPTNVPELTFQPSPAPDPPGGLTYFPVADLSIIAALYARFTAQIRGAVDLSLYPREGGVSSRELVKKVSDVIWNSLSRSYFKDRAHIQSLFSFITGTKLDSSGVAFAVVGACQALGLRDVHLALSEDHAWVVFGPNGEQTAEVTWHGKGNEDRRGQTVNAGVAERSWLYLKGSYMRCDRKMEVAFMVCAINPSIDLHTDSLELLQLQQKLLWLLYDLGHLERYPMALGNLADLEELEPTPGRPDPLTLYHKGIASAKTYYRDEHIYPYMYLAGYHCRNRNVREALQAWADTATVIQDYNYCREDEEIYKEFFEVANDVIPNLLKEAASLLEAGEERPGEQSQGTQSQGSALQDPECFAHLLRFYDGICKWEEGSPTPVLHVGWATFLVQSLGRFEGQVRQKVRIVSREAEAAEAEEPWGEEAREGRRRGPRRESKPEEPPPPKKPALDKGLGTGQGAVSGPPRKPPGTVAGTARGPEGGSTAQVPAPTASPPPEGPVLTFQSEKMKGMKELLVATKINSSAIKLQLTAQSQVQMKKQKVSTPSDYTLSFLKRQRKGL

Structure (SMILES) | Potency
CSc1nnc(CSCc2ccc(Cl)cc2Cl)n1-c1ccccc1 | inconclusive: 10 µM [fluorescent, side channel, partial curve]
CCOC(=O)/C(C(N)=NC)=C(\O)c1ccccc1 | inconclusive: 39.8 µM [inhibitor, single point]
O=C(CCS(=O)(=O)c1ccc(Cl)cc1)Nc1ccccc1Br | inconclusive: 39.8 µM [fluorescent, side channel, single point]
Oc1ccc2ccccc2c1/C=N/Nc1ccccc1 | inconclusive: 22.4 µM [quencher, side channel, single point]
O=C(Cn1c(=O)c2c(ncn2Cc2ccccc2)n(Cc2ccccc2)c1=O)N1CCCC1 | inconclusive: 10 µM [fluorescent, side channel, partial curve]
CC(C)Nc1nnc(SCC(=O)Nc2ccc3c(c2)C(=O)c2ccccc2C3=O)s1 | inconclusive: 12.6 µM [quencher, side channel, partial curve]
Cc1cc(NC(=O)c2cccnc2Cl)ccc1NC(=O)c1cc2ccccc2o1 | inconclusive: 35.5 µM [fluorescent, side channel, single point]
CCOc1ccccc1N1CCN(c2nc3ccccc3nc2C(C#N)C(=O)OC)CC1 (stereo not given) | inactive
O=C1CN(S(=O)(=O)c2ccc(Cl)cc2)c2ccccc2N1 | inconclusive: 14.1 µM [inhibitor, partial curve]
CC[C@H](C)[C@H](NC(=O)[C@H](CO)NC(=O)[C@H](CC(C)C)NC(=O)[C@H](CO)NC(=O)[C@@H]1CCCN1C(=O)[C@H](CC(N)=O)NC(=O)[C@@H](N)CC(=O)O)C(=O)N[C@@H](CC(=O)O)C(=O)N[C@@H](CC(C)C)C(=O)N[C@H](C(=O)N[C@@H](Cc1ccccc1)C(=O)N[C@@H](Cc1cnc[nH]1)C(=O)N[C@@H](CC(C)C)C(=O)N[C@@H](CC(C)C)C(=O)N[C@@H](CCCNC(=N)N)C(=O)N[C@H](C(=O)N[C@@H](CC(C)C)C(=O)N[C@@H](CC(C)C)C(=O)N[C@@H](CCC(=O)O)C(=O)N[C@@H](CC(C)C)C(=O)N[C@@H](C)C(=O)N[C@@H](CCCNC(=N)N)C(=O)N[C@H](C(=O)N[C@@H](CCC(N)=O)C(=O)N[C@@H](CO)C(=O)N[C@@H](CCC(N)=O)C(=O)N[C@@H](CCCNC(=N)N)C(=O)N[C@@H](CCC(=O)O)C(=O)N[C@@H](CCCNC(=N)N)C(=O)N[C@@H](C)C(=O)N[C@@H](CCC(=O)O)C(=O)N[C@@H](CCC(N)=O)C(=O)N[C@@H](CC(N)=O)C(=O)N[C@@H](CCCNC(=N)N)C(=O)N[C@H](C(=O)N[C@H](C(=O)N[C@@H](Cc1ccccc1)C(=O)N[C@@H](CC(=O)O)C(=O)N[C@@H](CO)C(=O)N[C@H](C(N)=O)C(C)C)[C@@H](C)CC)[C@@H](C)CC)[C@@H](C)O)[C@@H](C)O)[C@@H](C)O | inactive
